The source of these data is ChEMBL document CHEMBL4888484, “Replenishing the malaria drug discovery pipeline: Screening and hit evaluation of the MMV Hit Generation Library 1 (HGL1) against asexual blood stage Plasmodium falciparum ,using a nano luciferase reporter read-out” (2022).

A word on the % Inhibition: it is the change of the read-out against control, counted positive when it falls.

Screen size: about 4,800 compounds; about 410 (8.5%) showed an effect of 50% or more. The list shows a part of the results.

For the test, the system named is Plasmodium falciparum. As to the kind of experiment: Confirmatory screen in NF54 pLDH assay, in single point, at 2uM, 72h. Type of test: functional, Erythrocyte. The following applies: timepoint 72 hour.
Regarding `CCOc1ccc(NC(=O)c2ccc3c(c2)N(CC)[C@@H]2CCCCN2C3=O)cc1`, the “% Inhibition” value was 10%. In the case of `Cn1nc(C2CC2)nc1COc1cc(C(F)F)nc2ccc(Cl)cc12`, the “% Inhibition” value is 3%.

Take `CC(C)c1ccc(-c2n[nH]nc2C(=O)c2ccccc2N)cc1`: the “% Inhibition” value was 11%. The result for `O=C(NCc1cccc(F)c1)[C@H]1CCCN(c2nc3ccccc3n(Cc3ccccc3)c2=O)C1` reads 5%; that for `CC(C)(C)c1cc(N)nc(C(C)(C)C)n1`, -5%. As for `O=C1[C@H]2C(Cc3c[nH]c4ccccc34)N[C@@]3(C(=O)Nc4ccc(F)cc43)[C@H]2C(=O)N1CC1CCCO1` (some centres undefined), the figure is -20%. The result for `Cn1cncc1CC(=O)Nc1ccnc(NC(=O)OC(C)(C)C)c1` reads 100%; that for `COc1ccc(-c2nccn3cc(C(=O)NCCN(C)C4CCCCC4)nc23)cc1`, 5%; that for `CN1CCN(C(=O)CNC(=O)c2cccc(Cl)c2)CC1`, 8%. As to `Cc1nn(Cc2nnn(C)n2)c(C)c1Br`, the “% Inhibition” value is -12%.

For the molecule `CS(=O)(=O)CC1(CNC(=O)c2ccc(Br)cc2)CC1`, the “% Inhibition” value is reported as 11%. On to `O=C(CCC(=O)Nc1cccnc1)NCc1ccc2c(c1)OCO2`, for which the “% Inhibition” value was found to be 6%. The result for `C[C@@H](CNc1nc(-c2ccccc2)nc2nc(-c3ccc(Cl)cc3)oc12)N1CCCCC1` reads 76%; that for `O[C@H]1Cc2ccccc2[C@H]1Nc1nc(-c2ccccn2)nc2c1CCNC2`, -7%. Consider `CC(C)C(NC[C@H]1CCCN1S(C)(=O)=O)c1cc2ccccc2o1` (some centres undefined), for which the “% Inhibition” value stood at 5%. As for `Cn1cnn(CC(=O)N2CCc3ccccc3C2)c1=O`, the figure is 10%. The result for `COc1ccc(Nc2nc(C(=O)Nc3ncc(C)s3)cs2)cc1OC` reads 13%; that for `COc1ccc(NS(=O)(=O)c2ccc(NC(=O)CN(c3ccc(F)cc3)S(C)(=O)=O)cc2)cc1`, 12%; that for `FC(F)(F)C1CCCC(NCc2c[nH]nc2-c2cccnc2)C1` (centres undefined), 3%.

Regarding `Cc1c(C)n(C[C@H](O)Cn2c(C(F)(F)F)nc3ccccc32)c2c(Cl)cccc12`, the “% Inhibition” value is -15%. The result for `CCN(CC)[C@H](CNC(=O)C1=NN(C)C(=O)CC1)Cc1ccccc1` reads 13%; that for `O=C(O)c1cccc2c(-c3cc(-c4ccccc4)n(-c4ccccc4)n3)ccc(C(=O)O)c12`, 0%. For `CC(C)C(=O)N1CC[C@H](CC(=O)NCc2ccccc2)C1`, the “% Inhibition” value came out at 11%. The result for `CNC(=O)c1nc(C(=O)NCc2ccco2)cs1` reads -15%; that for `O=C(NCCc1c(Cl)cccc1Cl)[C@@H]1CCCc2[nH]cnc21`, -3%. The result for `O=C(Nc1ccn(-c2ccccc2)n1)N1CC2CCC(O)CC2C1` (centres undefined) reads -3%; that for `CC(C)[C@@H]1CN(C(=O)c2ccncc2)c2ccccc2N1`, -10%; that for `Cn1nc(C(=O)NCc2cccs2)cc1C(=O)NCc1cccs1`, 5%. In the case of `O=C(NC(N1CCCC1=O)(C(F)(F)F)C(F)(F)F)c1ccco1`, the “% Inhibition” value is -4%. As for `C=CCN(CC=C)S(=O)(=O)c1ccc(S(=O)(=O)NC)cc1`, the figure is -10%; as for `CCN(CC)S(=O)(=O)c1ccc2c(c1)CCCN2C(=O)c1ccc2ccccc2c1`, 10%. Regarding `O=C(NCc1ccc(F)c(Cl)c1)c1csc(C(=O)NC2CCCC2)n1`, the “% Inhibition” value is given as -4%.

On to `c1ccc(C(c2ccccc2)N2CCN(c3nn4cnnc4c4ccccc34)CC2)cc1`, for which the “% Inhibition” value came to 65%.

Consider `C[C@@H](CC#N)NC(=O)Nc1cc(-c2ccccc2)ns1`, for which the “% Inhibition” value worked out at 17%. The result for `CC(=O)N(C(C)=O)c1c(-c2ccccc2)nnn1-c1ccccc1` reads 10%; that for `CC(NC(=O)N[C@@H]1C=C[C@H](CO)C1)c1ccncc1F` (some centres undefined), -4%. Regarding `C[C@@H](CN1CCCCC1)NC(=O)Nc1nc(C(F)(F)F)cs1`, the “% Inhibition” value was -14%. The result for `O=C(CNc1ccccc1Nc1ccc(F)cc1F)N1CCNC1=O` reads 0%; that for `Cc1ccc(C)n1-c1ccccc1CNC(=O)c1ccc(C(F)(F)F)cc1`, -6%. The result for `O=C(Nc1ccc2c(c1)C(=O)N1CCC[C@H]1C(O)=N2)c1c(F)cccc1F` reads -20%; that for `COC(=O)C1(NC(=O)c2scnc2C)CCCCC1`, -5%; that for `CC(C)C(C(=O)O)N1Cc2c(cc(O)c3c2OC2(C3)C(C)CCC3C(C)(C)C(O)CCC32C)C1=O` (centres undefined), 5%. On to `CCOc1c(Br)cc(Cl)cc1NCC(=O)NC(=O)NC`, for which the “% Inhibition” value was determined as 14%.

`CC(C)(C)NC(=O)CNc1nnc(C2CC2)s1`: the “% Inhibition” value came out at 12%. For the molecule `O=C(Nc1[nH]c(=O)ncc1F)c1coc(-c2ccccc2)n1`, the “% Inhibition” value is recorded as 71%.

With `Cn1c(C(C)(C)C)nc2cc(NC3CCC4(CC3)OCCO4)ccc21`, the “% Inhibition” value is reported as -16%. As for `CC1CCCN(C2(N3CCCC(C)C3)C(=O)Nc3ccc(F)cc32)C1` (centres undefined), the figure is 19%; as for `Cc1ccn([C@@H](C)c2nnc(Nc3ccn(Cc4c(Cl)cccc4Cl)n3)s2)n1`, 3%. With `Cc1cc(C)n(-c2ccc(N3CC4CCC3C4)nc2)n1` (centres undefined), the “% Inhibition” value is on record as -2%. Turning to `Cc1cc(NC(=O)[C@H](C)OC(=O)c2ccc3c(c2)OCC(=O)N3)on1`, the “% Inhibition” value is recorded as -19%. As for `COc1ccc(-c2cc(C(F)(F)F)nc(-n3nc(-c4cccc(OC)c4)c(Cl)c3-c3cccc(OC)c3)n2)cc1`, the figure is 92%. The result for `CC(C)CN1C(=O)[C@H](Cc2ccccc2)NC12CCN(C(=O)c1ccc(Cl)cc1)CC2` reads 11%; that for `O=C(Nc1ccccc1N1CCCC1)[C@@H]1Cc2ccccc2O1`, 7%. `CC(C)(C)c1nc(CNc2ccc(S(=O)(=O)CCO)cc2)no1`: the “% Inhibition” value is reported as -21%. In the case of `O=C(NCCOc1ccccc1)N1CCN(S(=O)(=O)c2cccc(F)c2)CC1`, the “% Inhibition” value amounted to 13%. Turning to `Cc1nn(CCC(=O)NC2CCCC2)cc1Br`, the “% Inhibition” value is listed as -12%. Consider `CCn1cc2c(C(F)F)cc(=O)n(CCC(=O)NCc3ccc(F)cc3)c2n1`, for which the “% Inhibition” value is given as -8%.

Consider `Cc1cc(Br)ccc1CNC(=O)CN1CCCCC1=O`, for which the “% Inhibition” value turned out to be 13%. For `Cn1c(=O)c2c(c(-c3ccccc3)cn2C)n(CC(=O)NCc2ccco2)c1=O`, the “% Inhibition” value was -13%. As for `Cc1cc(NS(=O)(=O)c2ccc(Br)cc2)ccc1-c1ccc(C(=O)O)o1`, the figure is -11%; as for `CC(C)(C)N(CC(N)=O)CC(=O)NC(=O)NC1CCCCC1`, 8%; as for `Cc1nn(C)cc1-c1cc(C(F)(F)F)nc(N2CCOCC2)n1`, -11%. The result for `COc1ccc2oc(-c3ccc(CNC(=O)c4ccccc4)cc3)nc2c1` reads 11%.

For the molecule `Cc1cccc(N2CCN(S(=O)(=O)c3cc(-c4nnc(C)o4)co3)CC2)c1`, the “% Inhibition” value was -12%.
